Consider five molecules from US20250340562A1, “CHROMANE IMAGING LIGANDS” (The General Hospital Corporation, priority 2021, published 2025).

For data set [1], the system named is mGluR2. Description: PET imaging of [11C]13 in a nonhuman primate, blocking with compound 9. The class given is in vivo, cynomolgus monkey (Macaca fascicularis). The conditions noted are these: 9 1.0 mg/kg iv 20 min before tracer, Logan VT.
For data set [2], the target named is mGluR2 (Homo sapiens, UniProt Q14416). The conditions noted are these: literature values of known NAMs; read-out: IC50 (mGluR2 NAM); cited from earlier work.
Data set [3] in a line: arterial blood analysis of [11C]13 in a nonhuman primate.
Data set [4] concerns the target T1, mGluR2 (Mus musculus, UniProt Q14BI2).
T1 construct: from tissue; host or cells: mouse brain in vivo
Description: PET imaging of [18F]mG2N002 in Alzheimer's mouse model. The class given is in vivo, 3xTg-AD and control mice (129/C57BL6). The protocol: FIG. 12A Distribution of [^18F]mG2N002 in the brain of 10 months old male 3xTg-AD and control mice. The images show an accumulation of [^18F]mG2N002 at the time window of 2-20 min after injection of the radioactivity (120 μCi in 0.05 ml) into the tail vein. […] Axial and sagittal views clearly show the difference between accumulation in different brain areas in AD and control mice.
FIG. 12B Preliminary studies of the binding distribution of [^18F]mG2N002 in female and male 3xTg-AD and control mice. […] Additionally, uptake in male AD mice was lower than in control.
Animal compliance, PET imaging protocol, and image analysis are the same as the ones described in Yuan, G. et al. J. Med. Chem. 2022, 65(3), 2593-2609 under the sections of “Animal Procedures” and “PET imaging studies in rats”, except the animal model (i.e., mouse) and the amount of injected radioactivity (i.e., 120 μCi in 0.05 ml for each mouse). Animal model: 10-month-old male and female 3xTg-AD and control mice (129/C57BL6).

Another data set has as its target GRM2 (Homo sapiens, UniProt Q14416). Description: mG2N003 binding potency, protocol A (Yuan et al. J. Med. Chem. 2022).

Values joined by “and” are separate entries in the source; they are usually repeats but may differ in a detail not shown here. Equal entries are not always repeated.

T1 sequence (Q14BI2 19-872): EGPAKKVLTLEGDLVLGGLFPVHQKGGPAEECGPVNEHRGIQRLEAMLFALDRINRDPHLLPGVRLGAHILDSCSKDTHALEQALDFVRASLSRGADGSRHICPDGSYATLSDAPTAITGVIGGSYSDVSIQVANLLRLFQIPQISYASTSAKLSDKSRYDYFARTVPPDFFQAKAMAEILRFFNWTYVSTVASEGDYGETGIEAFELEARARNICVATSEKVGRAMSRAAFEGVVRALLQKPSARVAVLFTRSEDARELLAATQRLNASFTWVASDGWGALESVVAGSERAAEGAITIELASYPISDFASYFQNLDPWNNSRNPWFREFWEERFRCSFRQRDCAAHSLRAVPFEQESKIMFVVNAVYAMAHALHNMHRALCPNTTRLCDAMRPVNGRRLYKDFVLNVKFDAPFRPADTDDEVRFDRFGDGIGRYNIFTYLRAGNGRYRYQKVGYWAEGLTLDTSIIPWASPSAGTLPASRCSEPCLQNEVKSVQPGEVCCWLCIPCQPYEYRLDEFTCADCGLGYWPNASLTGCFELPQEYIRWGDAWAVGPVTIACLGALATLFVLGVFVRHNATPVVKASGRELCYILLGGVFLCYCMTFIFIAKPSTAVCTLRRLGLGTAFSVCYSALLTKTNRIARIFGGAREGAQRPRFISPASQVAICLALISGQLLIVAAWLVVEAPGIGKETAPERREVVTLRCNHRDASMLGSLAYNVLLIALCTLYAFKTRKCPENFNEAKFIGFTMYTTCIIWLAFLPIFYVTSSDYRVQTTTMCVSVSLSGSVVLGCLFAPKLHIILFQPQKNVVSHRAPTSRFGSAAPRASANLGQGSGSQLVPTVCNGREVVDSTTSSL
GRM2, sequence (Q14416 19-872, species assumed): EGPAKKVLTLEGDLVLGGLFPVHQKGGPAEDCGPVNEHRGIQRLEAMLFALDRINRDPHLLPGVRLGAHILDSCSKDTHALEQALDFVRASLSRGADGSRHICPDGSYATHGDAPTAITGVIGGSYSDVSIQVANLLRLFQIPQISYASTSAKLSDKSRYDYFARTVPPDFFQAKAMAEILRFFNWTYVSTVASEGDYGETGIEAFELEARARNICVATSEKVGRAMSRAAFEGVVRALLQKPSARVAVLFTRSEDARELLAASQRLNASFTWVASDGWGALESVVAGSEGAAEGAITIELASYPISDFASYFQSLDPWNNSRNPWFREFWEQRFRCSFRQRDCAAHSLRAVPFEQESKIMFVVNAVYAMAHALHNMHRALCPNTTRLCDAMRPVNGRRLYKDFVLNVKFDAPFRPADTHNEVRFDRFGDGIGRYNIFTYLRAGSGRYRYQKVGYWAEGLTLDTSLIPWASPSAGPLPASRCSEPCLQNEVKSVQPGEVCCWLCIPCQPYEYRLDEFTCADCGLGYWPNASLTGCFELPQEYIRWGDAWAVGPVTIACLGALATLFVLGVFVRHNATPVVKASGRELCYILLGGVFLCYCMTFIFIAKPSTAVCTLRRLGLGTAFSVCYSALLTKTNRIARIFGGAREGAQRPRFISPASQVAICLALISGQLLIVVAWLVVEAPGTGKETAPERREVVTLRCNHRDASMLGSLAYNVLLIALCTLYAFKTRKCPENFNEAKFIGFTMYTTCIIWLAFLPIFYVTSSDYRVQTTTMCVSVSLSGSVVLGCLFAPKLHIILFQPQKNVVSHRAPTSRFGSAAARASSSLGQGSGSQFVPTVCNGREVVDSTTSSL
mGluR2 (Homo sapiens, UniProt Q14416), sequence (Q14416 19-872): as the sequence (Q14416 19-872, species assumed) above

In general, IC50 refers to the concentration needed to halve the response being measured. For `Cn1ccc(COc2cnc(C(N)=O)cc2-c2ccc(F)cc2)n1` [VU6001966], in the data set with mGluR2 [1] (120 min, t* 30 min), the “decrease of VT estimates, cerebellum gray” value was 16.8% and the “decrease of VT estimates, occipital gyrus” value is 3.2%. Besides, the “decrease of VT estimates, average in the whole brain” value with mGluR2 [1] (listed as 9, 1 mg/kg) is 14.1% and 14%. Further, on mGluR2 [2], the IC50 is 78 nM.

For `CC1(C)CCc2c(-c3ccc(O[11CH3])cc3F)cc(C(N)=O)nc2O1` [[^11C]13, 5-(2-fluoro-4-[^11C]methoxyphenyl)-2,2-dimethyl-3,4-dihydro-2H-pyrano[2,3-b]pyridine-7-carboxamide], the “percent parent (% PP) in plasma” value in data set [3] (at 30 min) is on record as 53±5.3%. Besides, the “plasma-free fraction (fp)” value in data set [3] (baseline condition) was found to be 0.131±0.006; in data set [3] (blocking study) it was 0.099±0.011.

On to `COc1ccc(-c2cc(Cl)nc3c2CC(C)(C)CO3)c(F)c1` [[^11C]MG-1904], for which the IC50 on mGluR2 [2] was 24 nM.

As to `CC1(C)CCc2c(-c3ccc([18F])cc3F)cc(C(N)=O)nc2O1` [[^18F]mG2N002, S-(2-fluoro-4-[^18F]fluorophenyl)-2,2-dimethyl-3,4-dihydro-2H-pyrano[2,3-b]pyridine-7-carboxamide], the “accumulation in brain of AD versus control mice” value at mGluR2 [4] (10 months old male 3xTg-AD vs control, 2-20 min) is “lower accumulation of [^18F]mG2N002 in AD mouse compared to the control mouse”. Also, the brain permeability result at mGluR2 [4] (mice, 120 μCi iv) is “excellent brain permeability”. In addition, the “binding distribution in female and male AD and control mice” value at mGluR2 [4] (preliminary studies, all brain areas) was “lower in female AD mice than in female control or male AD mice”.

As for `COc1ccc(-c2cc(C(N)=O)nc3c2CC(C)(C)CO3)c(F)c1` [mG2N003, 5-(2-Fluoro-4-methoxyphenyl)-3,3-dimethyl-3,4-dihydro-2H-pyrano[2,3-b]pyridine-7-carboxamide], the IC50 on GRM2 was determined as 578 nM. Also, the “decrease in potency toward GRM2 relative to compound 2-7” value on GRM2 (p-F replaced by methoxy) is above 20 ×.
